# In the supplement of paper PMC8728848:
# This is one part of the list.
# B1: CvGal2 (Crassostrea virginica) (protein)
# chain: MGSSHHHHHHSSGLVPRGSHMRIREAGKRKDTTKVYQIPDGLFPGQQVMLRGRVPWGSKSFSINFSATPRMGEGDILFHLNPRPSEGVCIRNALLNGSWGAEEKWQPYFPFDDGRSFSVKIEVTNDAFRTFVNGRPFVDFLHRTDFRAGKYLTLREGAEYYDVIFQSKPNIPLTTAIHNGMRIGKTIRIRGMCTAQDGFAINFNDNRNNIYFHFNARPAQRTVVRNSYFGSWGNEETAISKEFPFYPFLYFYASFVCMEDKFAVYVNDEHFIDFAHRGNPNNISVLQIKGSVNVLDTECLEPMGEDAMTEVDSGLENGDLFVLNGLMTERGKTFAVNFLNGFTENDDIALHFNPRKSTGEVVLNSRYGGAWQSEEKVALPGVFWSNRPLQVKVETKRNKFKIYVNGVDLAKYKIRGNVEDVHAVQVKGDVFLLETLLLKRLMKPVWERLTGGIRPGTWVTLQGTPKKNWQQFVVNFALDDTLDGDIAFHFNVRRGARQVVRNHRQSGAWGREETVTPFFAFDSEATFEIVFFVKEEKFLIYFNGKLFFEFVHRVPVERITHIYMDGDCNFYEPEVVI
# Assays:
# Experiment in all cases: glycan array binding signal (z-score within array); higher = stronger binding
# Details in all cases: glycan notation: IUPAC condensed, linker removed
# [1] = target: Neu5Ac(a2-3)Gal(b1-4)GlcNAc(b1-3)[Neu5Ac(a2-3)Gal(b1-4)GlcNAc(b1-6)]GalNAc
# How it was run: (§1)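 Arrays were curated from the Consortium for Functional Glycomics database, 3228 in total, and kept only where the protein sequence was available. Binding is expressed as a within-array Z-score. This score was averaged across arrays of the same protein sequence at different concentrations or buffers and across linkers, and negative values can be read as non-binding.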
# [2] = target: Neu5Ac(a2-3)Gal(b1-4)GlcNAc(b1-6)GalNAc
# How it was run: as §1
# [3] = target: Neu5Ac(a2-3)Gal(b1-4)GlcNAc(b1-6)[Gal(b1-3)]GalNAc
# How it was run: as §1
# [4] = target: Neu5Ac(a2-3)Gal(b1-4)GlcNAc(b1-6)[Neu5Ac(a2-3)Gal(b1-3)]GalNAc
# How it was run: as §1
# [5] = target: Neu5Ac(a2-3)Gal(b1-4)GlcNAc6S
# How it was run: as §1
# [6] = target: Neu5Ac(a2-3)Gal(b1-4)[Fuc(a1-3)]GlcNAc
# How it was run: as §1
# [7] = target: Neu5Ac(a2-3)Gal(b1-4)[Fuc(a1-3)]GlcNAc(b1-2)Man
# How it was run: as §1
# [8] = target: Neu5Ac(a2-3)Gal(b1-4)[Fuc(a1-3)]GlcNAc(b1-3)Gal
# How it was run: as §1
# [9] = target: Neu5Ac(a2-3)Gal(b1-4)[Fuc(a1-3)]GlcNAc(b1-3)Gal(b1-4)GlcNAc
# How it was run: as §1
# [10] = target: Neu5Ac(a2-3)Gal(b1-4)[Fuc(a1-3)]GlcNAc(b1-3)Gal(b1-4)[Fuc(a1-3)]GlcNAc(b1-3)Gal(b1-4)[Fuc(a1-3)]GlcNAc
# How it was run: as §1
# [11] = target: Neu5Ac(a2-3)Gal(b1-4)[Fuc(a1-3)]GlcNAc(b1-3)GalNAc
# How it was run: as §1
# [12] = target: Neu5Ac(a2-3)Gal(b1-4)[Fuc(a1-3)]GlcNAc(b1-6)[Gal(b1-3)]GalNAc
# How it was run: as §1
# [13] = target: Neu5Ac(a2-3)Gal(b1-4)[Fuc(a1-3)]GlcNAc(b1-6)[Neu5Ac(a2-3)Gal(b1-3)]GalNAc
# How it was run: as §1
# [14] = target: Neu5Ac(a2-3)Gal(b1-4)[Fuc(a1-3)]GlcNAc6S
# How it was run: as §1
# [15] = target: Neu5Ac(a2-3)Gal6S(b1-4)GlcNAc
# How it was run: as §1
# [16] = target: Neu5Ac(a2-3)Gal6S(b1-4)[Fuc(a1-3)]GlcNAc
# How it was run: as §1
# Neu5Ac(a2-3)GalNAc = target: Neu5Ac(a2-3)GalNAc
# How it was run: as §1
# [17] = target: Neu5Ac(a2-3)GalNAc(b1-4)GlcNAc
# How it was run: as §1
# [18] = target: Neu5Ac(a2-3)[GalNAc(b1-4)]Gal(b1-4)Glc
# How it was run: as §1
# [19] = target: Neu5Ac(a2-3)[GalNAc(b1-4)]Gal(b1-4)GlcNAc
# How it was run: as §1
# [20] = target: Neu5Ac(a2-3)[GalNAc(b1-4)]Gal(b1-4)GlcNAc(b1-3)GalNAc
# How it was run: as §1
# [21] = target: Neu5Ac(a2-3)[Neu5Ac(a2-6)]GalNAc
# How it was run: as §1
# Neu5Ac(a2-6)Gal = target: Neu5Ac(a2-6)Gal
# How it was run: as §1
# [22] = target: Neu5Ac(a2-6)Gal(b1-3)GlcNAc(b1-3)[Gal(b1-4)GlcNAc(b1-6)]Gal(b1-4)Glc
# How it was run: as §1
# Neu5Ac(a2-6)Gal(b1-4)Glc = target: Neu5Ac(a2-6)Gal(b1-4)Glc
# How it was run: as §1
# [23] = target: Neu5Ac(a2-6)Gal(b1-4)GlcNAc
# How it was run: as §1
# [24] = target: Neu5Ac(a2-6)Gal(b1-4)GlcNAc(b1-2)Man
# How it was run: as §1
# [25] = target: Neu5Ac(a2-6)Gal(b1-4)GlcNAc(b1-2)Man(a1-3)Man(b1-4)GlcNAc(b1-4)GlcNAc
# How it was run: as §1
# [26] = target: Neu5Ac(a2-6)Gal(b1-4)GlcNAc(b1-2)Man(a1-3)[Gal(b1-4)GlcNAc(b1-2)Man(a1-6)]Man(b1-4)GlcNAc(b1-4)GlcNAc
# How it was run: as §1
# [27] = target: Neu5Ac(a2-6)Gal(b1-4)GlcNAc(b1-2)Man(a1-3)[GlcNAc(b1-2)Man(a1-6)]Man(b1-4)GlcNAc(b1-4)GlcNAc
# How it was run: as §1
binder,measurement,setting,value
B1,glycan array binding signal (z-score),[1],-0.328
same,glycan array binding signal (z-score),[2],-0.339
same,glycan array binding signal (z-score),[3],-0.331
same,glycan array binding signal (z-score),[4],-0.33
same,glycan array binding signal (z-score),[5],-0.337
same,glycan array binding signal (z-score),[6],-0.343
same,glycan array binding signal (z-score),[7],-0.331
same,glycan array binding signal (z-score),[8],-0.339
same,glycan array binding signal (z-score),[9],-0.328
same,glycan array binding signal (z-score),[10],-0.326
same,glycan array binding signal (z-score),[11],-0.292
same,glycan array binding signal (z-score),[12],-0.323
same,glycan array binding signal (z-score),[13],-0.333
same,glycan array binding signal (z-score),[14],-0.321
same,glycan array binding signal (z-score),[15],-0.334
same,glycan array binding signal (z-score),[16],-0.342
same,glycan array binding signal (z-score),Neu5Ac(a2-3)GalNAc,-0.322
same,glycan array binding signal (z-score),[17],-0.326
same,glycan array binding signal (z-score),[18],-0.337
same,glycan array binding signal (z-score),[19],-0.337
same,glycan array binding signal (z-score),[20],-0.324
same,glycan array binding signal (z-score),[21],-0.323
same,glycan array binding signal (z-score),Neu5Ac(a2-6)Gal,-0.339
same,glycan array binding signal (z-score),[22],-0.329
same,glycan array binding signal (z-score),Neu5Ac(a2-6)Gal(b1-4)Glc,-0.332
same,glycan array binding signal (z-score),[23],-0.329
same,glycan array binding signal (z-score),[24],-0.34
same,glycan array binding signal (z-score),[25],-0.334
same,glycan array binding signal (z-score),[26],-0.329
same,glycan array binding signal (z-score),[27],-0.331
